Substrate in this data set: CCCNS(=O)(=O)Nc1ncnc(OCCOc2ncc(Br)cn2)c1-c1ccc(Br)cc1
Briefly: Inhibition of macitentan metabolism (ACT-132577 formation) by bergapten and Michaelis-Menten kinetics in recombinant human CYP3A4. It counts as in vitro ADME. The conditions noted are these: other: rCYP3A4. As to the method: The concentrations of macitentan and ACT-132577 were determined by UPLC-MS/MS, which consisted of an Acquity I-class UPLC system (Waters Corp., Milford, MA, United States) and a Xevo TQD triple quadrupole mass spectrometer (Waters Corporation, Milford, MA, United States) equipped with an electrospray ionization source. Chromatographic separation was performed on an Acquity UPLC BEH C18 column (2.1 × 100 mm, 1.7 μm) at 40°C. The mobile phase was composed of acetonitrile (solvent A) and water containing 0.1% formic acid (solvent B, pH 2.74). The gradient condition of mobile phases was set with a flow rate of 0.4 mL/min as follows: 0–0.5 min, 20% A; 0.5–1 min, 70% A; 1–2 min, 95% A; 2–2.6 min, 20% A. Positive ion and selective multiple reaction monitoring (SRM) modes were used for quantitative analysis with the precursor to product ion transitions of m/z 588.9→203.4 for macitentan, 546.9→200.6 for ACT-132577, and 285.0→193.0 for diazepam. The cone voltage and collision voltage were 28V, 14 V for macitentan, 26V, 28 V for ACT-132577, and 35V, 30 V for diazepam. The mass spectrometry parameters of the source temperature, desolvation temperature, cone gas flow rate, and desolvation gas flow rate were 150°C, 500°C, 50 L/h, and 1000 L/h, respectively.
The effects of BP on macitetan metabolism in vitro were investigated using RLMs, HLMs, and rCYP3A4. […]

B1: recombinant human CYP3A4 (rCYP3A4) (Homo sapiens) (protein)
chain: MALIPDLAMETWLLLAVSLVLLYLYGTHSHGLFKKLGIPGPTPLPFLGNILSYHKGFCMFDMECHKKYGKVWGFYDGQQPVLAITDPDMIKTVLVKECYSVFTNRRPFGPVGFMKSAISIAEDEEWKRLRSLLSPTFTSGKLKEMVPIIAQYGDVLVRNLRREAETGKPVTLKDVFGAYSMDVITSTSFGVNIDSLNNPQDPFVENTKKLLRFDFLDPFFLSITVFPFLIPILEVLNICVFPREVTNFLRKSVKRMKESRLEDTQKHRVDFLQLMIDSQNSKETESHKALSDLELVAQSIIFIFAGYETTSSVLSFIMYELATHPDVQQKLQEEIDAVLPNKAPPTYDTVLQMEYLDMVVNETLRLFPIAMRLERVCKKDVEINGMFIPKGVVVMIPSYALHRDPKYWTEPEKFLPERFSKKNKDNIDPYIYTPFGSGPRNCIGMRFALMNMKLALIRVLQNFSFKPCKETQIPLKLSLGGLLQPEKPVVLKVESRDGTVSGA
notes: made in house
Turning to B1, the Km (in general, the substrate concentration at which the rate is half of its maximum) was 13.14 µM and the Vmax is 2.32 nmol/min/mg protein.

The record behind these values is PMC10363979, “Effects of bergapten on the pharmacokinetics of macitentan in rats both in vitro and in vivo” (Frontiers in Pharmacology, 2023).
